PubChem BioAssay AID360 (National Center for Advancing Translational Sciences (NCATS), 2006)
Hit rate of the full screen: of about 48,000 compounds, about 550 (1.1%) were called active. Not shown: some 4% with an inconclusive outcome. Rule as the data show it: active = potency below about 15 µM; inconclusive = mostly about 16 µM to 33 µM; inactive = weaker than that. The list shows a part of the results.

Molecular target: Lysosomal acid glucosylceramidase (Homo sapiens) (UniProt P04062)
Experiment: Glucocerebrosidase;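 also: the screen sought inhibitors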
Settings: purified enzyme, resorufin glucoside fluorescence (screen aimed at inhibitors), 20 min
Source text: NCGC Assay Overview: Beta-glucocerebrosidase catalyzes the hydrolysis of beta-glucocerebroside to glucose and ceramide. The inherited deficiency of beta-glucocerebrosidase results in Gaucher disease, which is characterized by a wide variety of symptoms including hepatosplenomegaly, anemia, thrombocytopenia, bony lesions and bone marrow infiltration with characteristic storage cells, known as Gaucher cells. There are also forms of the disorder affecting the central nervous system. Patients with the same genotypes can manifest with diverse clinical presentations and it is believed that improper folding and trafficking of beta-glucocerbrosidase may contribute to the phenotypes observed. Low molecular weight molecules, acting as chaperones, may potentially restore trafficking of misfolded beta-glucocerebrosidase from the endoplasmic reticulum to the lysosomes, thereby enhancing functional lysosomal beta-glucocerebrosidase activity. Using normal beta-glucocerebrosidase, an assay was developed to screen for small molecule inhibitors that could potentially act as molecular chaperones on the mutant forms [developed with NIH investigator Dr. Ellen Sidransky's laboratory]. Two pro-fluorescent substrates were chosen for two screens against a small molecule library. One beta-glucocerebrosidase assay used Resorufin beta-D-Glucopyranoside (Marker Gene Technology Inc.), generating a red fluorescent product. The second assay used Fluorescein di-beta-D-Glucopyranoside, generating a blue fluorescent product. […] The IC50 values of Conduritol B Epoxide, a known glucocerebrosidase inhibitor, were determined to be 87.5 uM and 117 uM, respectively. The use of two difference pro-fluorescent substrates in the screens helped to eliminate false positives. All compounds were screened in a titration series resulting in AC50s (e.g., IC50s or EC50s).
NCGC Assay Protocol Summary: Both enzyme and substrate were diluted in buffer composed of 50mM citric acid/KH2PO4, 10mM sodium taurocholate and 0.01% tween-20 at pH 5.9. The final concentration of the enzyme was 0.2 nM in both assays. The compound library was titrated in 7 to 15 concentrations for the primary screens with a final concentration ranging from 0.6 nM to 50 uM. This particular assay protocol is for the "red" substrate, and it was performed in 1536-well plate format as follows: Red fluorescence substrate assay: 2 uL enzyme 23 nL compound 1 uL substrate (final concentration of 30 uM) Incubate at room temperature (RT) for 20 minutes Read the plate in Viewlux plate reader (Ex=548(7) and Em=600(10)).
Potency is read from the fitted curve at half-maximal effect.

UniProt P04062, sequence (P04062 whole entry, looked up): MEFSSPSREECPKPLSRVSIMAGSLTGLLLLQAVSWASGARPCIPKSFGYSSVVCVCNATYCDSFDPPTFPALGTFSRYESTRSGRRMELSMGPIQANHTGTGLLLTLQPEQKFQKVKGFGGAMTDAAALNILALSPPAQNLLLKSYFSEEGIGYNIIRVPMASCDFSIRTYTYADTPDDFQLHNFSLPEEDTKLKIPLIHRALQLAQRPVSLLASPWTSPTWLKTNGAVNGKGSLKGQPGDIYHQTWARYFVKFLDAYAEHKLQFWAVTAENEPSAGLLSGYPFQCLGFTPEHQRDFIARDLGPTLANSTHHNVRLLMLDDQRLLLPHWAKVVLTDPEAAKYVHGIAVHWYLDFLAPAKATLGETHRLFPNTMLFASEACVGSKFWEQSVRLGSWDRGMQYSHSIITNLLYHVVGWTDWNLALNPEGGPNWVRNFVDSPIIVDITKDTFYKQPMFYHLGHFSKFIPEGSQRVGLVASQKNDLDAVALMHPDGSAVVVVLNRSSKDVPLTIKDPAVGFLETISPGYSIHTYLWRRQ

| SMILES | Potency |
| --- | --- |
| Cc1ccc(-c2csc(N(CC3CCCO3)C(=O)c3ccco3)n2)cc1 (configuration not stated) | inactive: > 76.9 µM |
| CC1CN(Cc2nc3c(c(=O)n(C)c(=O)n3C)n2CCCO)CC(C)O1 (configuration not stated) | inactive: > 76.9 µM |
| CN(C)c1ccc(C2N(C(=O)N3CCOCC3)CCN2S(=O)(=O)c2ccccc2)cc1 (configuration not stated) | inactive: > 76.9 µM |
| COc1cccc(C(=O)N2CCCc3ccccc32)c1 | inactive: > 76.9 µM |
| Cc1ccc(NCc2nnc3n2CCCCC3)cc1 | inactive: > 76.9 µM |
| c1csc(-c2nn3c(-c4ccncc4)nnc3s2)c1 | inactive: > 76.9 µM |
| CC1(C)COCN1S(=O)(=O)c1ccc(C(=O)Nc2nnc(-c3ccc(Cl)s3)o2)cc1 | inactive: > 76.9 µM |
| Cc1cc(C(=O)CSc2nnc(Cc3ccccc3)o2)c(C)n1Cc1ccc2c(c1)OCO2 | active: 3.97 µM |
| Cc1cccc(OCC(=O)Nc2ccccc2N2CCN(C(=O)C(C)C)CC2)c1C | inactive: > 76.9 µM |
| O=C(NCCN1CCN(C(=O)c2cc3ccccc3oc2=O)CC1)c1cc2ccccc2oc1=O | inactive: > 76.9 µM |
| Cc1cc(NC(=O)c2sc(Nc3cccc(C(F)(F)F)c3)nc2N)no1 | active: 11.8 µM |
| COc1ccc(C)cc1NS(=O)(=O)c1cccc2nonc12 | inactive: > 76.9 µM |
| O=C1CC(c2ccc(F)cc2)Cc2nc(N3CCc4ccccc43)ncc21 (configuration not stated) | inactive: > 76.9 µM |
| Cc1sc2ncn3c(C)nnc3c2c1C | inactive: > 76.9 µM |
| COc1cccc(CNC(=O)CCS(=O)(=O)c2cccc3nsnc23)c1 | inactive: > 76.9 µM |
| O=C(Cn1nc(C(F)(F)F)c2c1CCCC2)NC1CCCC1 | inactive: > 76.9 µM |
| CCCCCC(=O)Nc1cccc(-c2nc3ncccc3o2)c1 | inactive |
| Cc1noc(C)c1C(=O)N1CCc2ccccc21 | inactive: > 76.9 µM |
| COc1ccc(N2C(=O)NC3CC2(C)Oc2ccc(Cl)cc23)cc1OC (configuration not stated) | inactive: > 76.9 µM |
| COc1ccc2nc(NC3=NCCC3)sc2c1 | inactive: > 76.9 µM |
| Cc1ccc(C2C3=C(CC(C)(C)CC3=O)N(CCN3CCOCC3)C3=C2C(=O)CC(C)(C)C3)cc1 | inactive: > 76.9 µM |
| CC(C)(C)NC(=O)Nc1ccccc1C(N)=O | inactive: > 76.9 µM |
| O=C(CSc1ccccc1)N1CCN(c2ccccc2)CC1 | inactive: > 76.9 µM |

| SMILES | Potency |
| --- | --- |
| Cc1ccc(Nc2cccccc2=O)cc1 | inactive: > 76.9 µM |
| COc1ccc(-c2ccc(=O)n(CC(=O)NCc3ccco3)n2)cc1 | inactive: > 76.9 µM |
| Cc1cnc(C)c(N2CCC(C(=O)NCc3ccco3)CC2)n1 | inactive: > 76.9 µM |
| CCN1C(=O)C2C(c3cccc(F)c3)NC(C)(C(=O)OC)C2C1=O (configuration not stated) | inactive: > 76.9 µM |
| Cc1occc1-c1nnc(SCC(=O)Nc2ccc3c(c2)OCO3)n1CC1CCCO1 (configuration not stated) | inactive: > 76.9 µM |
| CCOC(=O)c1cc(C#N)c(SCc2ccc(C#N)cc2)nc1C | inactive: > 76.9 µM |
| O=C(Nc1c2c(nn1-c1ccc(F)cc1)CS(=O)C2)C12CC3CC(CC(C3)C1)C2 (configuration not stated) | inactive: > 76.9 µM |
| Cc1ccc(CN2CC(C(=O)Nc3ccc4c(C)cc(=O)oc4c3)CC2=O)cc1 (configuration not stated) | inactive: > 76.9 µM |
| Cc1cc(NC(=O)C2CCCC2)nc2c1c(=O)oc1ccccc12 | inactive: > 76.9 µM |
| CCCNS(=O)(=O)c1ccc(OCC(=O)NCCCOC)cc1 | inactive: > 76.9 µM |
| O=C(CSc1nc2c(cnn2-c2ccccc2)c(=O)[nH]1)c1ccc(Cl)cc1 | inactive: > 76.9 µM |
| O=C(O)c1cc(Cl)c2ccccc2c1O | inactive: > 76.9 µM |
| COc1cc(NC(=O)c2cc(-n3cnnc3)ccc2Cl)cc(OC)c1 | inactive: > 76.9 µM |
| O=C(CCNS(=O)(=O)c1ccc(Cl)cc1)NCc1ccccn1 | inactive: > 76.9 µM |
| CCCc1ccc(C(=O)N2CCN(c3ccccc3OCC)CC2)cc1 | inactive |
| COc1ccc(CCNC(=O)C2CCN(Cc3nc(-c4ccc(Cl)cc4)oc3C)CC2)cc1OC | inactive: > 76.9 µM |
| FC(F)Oc1ccc(-c2csc(Cc3nnc4n3CCCCC4)n2)cc1 | inactive: > 76.9 µM |
| C=CCn1c(=O)c2c(nc3n2CCS3)n(C)c1=O | inactive: > 76.9 µM |
| Cc1cc(C)n(C(=O)c2cc3sccc3[nH]2)n1 | inactive: > 76.9 µM |
| Cn1c(=O)c2c(nc(CN3CCOCC3)n2CCCc2ccccc2)n(C)c1=O | inactive: > 76.9 µM |
| O=C(CC1NC(=O)NC1=O)Nc1cccc2ccccc12 (configuration not stated) | inactive: > 76.9 µM |
| COc1ccccc1NC(=O)CSc1nnc(-c2ccccn2)n1Cc1ccco1 | inactive: > 76.9 µM |
| Cc1nnc(SCC(=O)N2CCN(S(=O)(=O)c3ccc(Cl)cc3)CC2)[nH]c1=O | inactive: > 76.9 µM |

| SMILES | Potency |
| --- | --- |
| COc1ccc(C)cc1-n1nnnc1SCc1csc(C)n1 | inactive: > 76.9 µM |
| O=C(NCCC1=CCCCC1)C1CCN(S(=O)(=O)c2cccc3nsnc23)CC1 | inactive: > 76.9 µM |
| Cc1cc(C(F)F)n2nc(C(=O)Nc3ccccc3Br)nc2n1 | inactive: > 76.9 µM |
| CCOCCCNS(=O)(=O)c1ccc2c(c1)CCN2C(=O)CC | inactive: > 76.9 µM |
| O=C(CN1CCOCC1)Nc1cccc(Br)c1 | inactive: > 76.9 µM |
| COC(=O)c1ccccc1NC(=O)CSc1nccn1C | inactive: > 76.9 µM |
| CC(=O)c1cc2c(cc1NC(=O)CN1CCN(c3ccc(F)cc3)CC1)OCO2 | inactive: > 76.9 µM |
| CCOC(=O)NC(CC(=O)O)c1ccc(OCC)cc1 (configuration not stated) | inactive: > 76.9 µM |
| CN(C)c1ccc(C2OC(=O)C3(CCCC3)C(=O)C2(C)C)cc1 (configuration not stated) | inactive: > 76.9 µM |
| c1nnc2c3c4c(sc3ncn12)CCCC4 | inactive: > 76.9 µM |
| COc1ccccc1NC(=O)CC1Nc2ccccc2NC1=O (configuration not stated) | inactive: > 76.9 µM |
| O=P1(O)C=C(c2ccccc2)OC(c2ccccc2)=C1 | inactive: > 76.9 µM |
| C=CCN1C(=O)CSc2ccc(C(=O)NCc3ccco3)cc21 | inactive: > 76.9 µM |
| O=C(CCn1c(=O)c2sccc2n(Cc2cc(=O)n3ccccc3n2)c1=O)NCc1ccco1 | inactive: > 76.9 µM |
| O=C(Nn1cnnc1)c1ccc(F)c(S(=O)(=O)N2CCCCC2)c1 | inactive: > 76.9 µM |
| CN(C)c1ccc(CN(C(=O)COc2ccccc2)C2CCS(=O)(=O)C2)cc1 (configuration not stated) | inactive: > 76.9 µM |
| O=c1cc(NC2CCCCCC2)[nH]c(=O)[nH]1 | inactive: > 76.9 µM |
| Cc1ccc(-n2ncc3c(Nc4c(C)n(C)n(-c5ccccc5)c4=O)ncnc32)c(C)c1 | inactive: > 76.9 µM |
| c1csc(Cc2nc3ccccc3[nH]2)c1 | inactive: > 76.9 µM |
| CC(NC(=O)c1ccccc1NS(C)(=O)=O)c1ccccc1 (configuration not stated) | inactive: > 76.9 µM |
| CN(Cc1nc(-c2ccncc2)no1)S(=O)(=O)c1ccc(Br)cc1 | inactive: > 76.9 µM |
| Cc1ccc(OCCCC(=O)Nc2ccc(N3CCOCC3)cc2)c(C)c1 | inactive: > 76.9 µM |
| Cc1cc(C)n(CCCNC(=O)c2ccc3c(c2)NC(=O)CS3)n1 | inactive: > 76.9 µM |

| SMILES | Potency |
| --- | --- |
| COc1ccc(N(C(C)=O)S(=O)(=O)c2cc(OC)ccc2OC)cc1 | inactive: > 76.9 µM |
| CCOC(=O)C(C#N)c1ccccn1 (configuration not stated) | inactive: > 76.9 µM |
| Cc1nn(CC(=O)Nc2ccc(C(=O)N3CCCCC3)cc2)c(=O)c2ccccc12 | inactive: > 76.9 µM |
| CC1(C(=O)Nc2nccs2)Cc2ccccc2C(=O)O1 (configuration not stated) | inactive: > 76.9 µM |
| O=C(O)C1OC(C(=O)O)C2C1C(F)(F)C2(F)F (configuration not stated) | inactive: > 76.9 µM |
| C=CCn1c(N)c(C(=O)NCC2CCCO2)sc1=S (configuration not stated) | inactive: > 76.9 µM |
| COc1cccc(-c2nc(CS(=O)CC(=O)NCCCOC(C)C)c(C)o2)c1 (configuration not stated) | inactive: > 76.9 µM |
| c1ccc(OCCSc2nnnn2C2CCCCC2)cc1 | inactive: > 76.9 µM |
| O=c1c2c3c(sc2n2cnnc2n1CCc1ccccc1)CCCC3 | inactive: > 76.9 µM |
| CCCc1cc(Nc2cccc(OCC)c2)n2ncnc2n1 | inactive: > 76.9 µM |
| COc1ccc(C)cc1NC(=O)C1CCCN(S(=O)(=O)c2cccc3nonc23)C1 (configuration not stated) | inactive: > 76.9 µM |
| Cc1nnc(SCC(=O)NCc2ccc(Cl)cc2)[nH]c1=O | inactive: > 76.9 µM |
| CCCCNC(=O)c1c[nH]c2ccc(S(=O)(=O)Nc3ccc(OCC)cc3)cc2c1=O | inactive: > 76.9 µM |
| C=CCNC(=O)CNS(=O)(=O)c1ccc(F)cc1 | inactive: > 76.9 µM |
| Cc1ccc(C2CC(=O)c3cnc(N4CC(C)CC(C)C4)nc3C2)cc1 (configuration not stated) | inactive: > 76.9 µM |
| Cc1noc(C)c1S(=O)(=O)N1CCCC(C(=O)NCCC2=CCCCC2)C1 (configuration not stated) | inactive: > 76.9 µM |
| COc1cc(OC)cc(C(=O)Nc2cccc(N3CCCC3)c2)c1 | inactive: > 76.9 µM |
| CCCN1C(=O)C(O)(CC(=O)c2cccc(OC)c2)c2ccccc21 (configuration not stated) | inactive: > 76.9 µM |
| COC(=O)C(C(=O)Nc1ncccn1)C1CCCCCC1 (configuration not stated) | inactive: > 76.9 µM |
| CCCNC(=O)c1cc(-c2ccc(OC)cc2)on1 | inactive: > 76.9 µM |
| O=[N+]1C2=C(CCCC2)N([O-])C12CCCC2 | inactive: > 76.9 µM |
| O=C(c1ccco1)N1CCN(C(=O)c2sccc2-c2ccccc2)CC1 | inactive: > 76.9 µM |
| Cc1cccc2cc(CN(CCCO)C(=O)Nc3ccc(Cl)cc3)c(=O)[nH]c12 | inactive: > 76.9 µM |
